# Reference: the supplement of paper PMC8728848
# Some of the results follow.
# B1: MIC1 (Toxoplasma gondii), O00834 (protein)
# chain: MGQALFLTVLLPVLFGVGPEAYGEASHSHSPASGRYIQQMLDQRCQEIAAELCQSGLRKMCVPSSRIVARNAVGITHQNTLQWRCFDTASLLESNQENNGVNCVDDCGHTIPCPGGVHRQNSNHATRHEILSKLVEEGVQRFCSPYQASANKYCNDKFPGTIARRSKGFGNNVEVAWRCYEKASLLYSVYAECASNCGTTWYCPGGRRGTSTELDKRHYTEEEGIRQAIGSVDSPCSEVEVCLPKDENPPLCLDESGQISRTGGGPPSQPPEMQQPADRSDERGGGKEQSPGGEAQPDHPTKGGNIDLPEKSTSPEKTPKTEIHGDSTKATLEEGQQLTLTFISTKLDVAVGSCHSLVANFLDGFLKFQTGSNSAFDVVEVEEPAGPAVLTIGLGHKGRLAVVLDYTRLNAALGSAAYVVEDSGCSSSEEVSFQGVGSGATLVVTTLGESPTAVSA
# Columns and labels:
# Experiment in all cases: glycan array binding signal (z-score within array); higher = stronger binding
# Conditions in all cases: glycan notation: IUPAC condensed, linker removed
# [1] = target: Gal(b1-4)GlcNAc(b1-3)Gal(b1-4)GlcNAc(b1-3)Gal(b1-4)GlcNAc
# How it was run: (§1)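 Columns mapping to the same glycan were averaged after glycan names were converted to IUPAC-condensed notation. The data come from 3228 arrays in the Consortium for Functional Glycomics database, limited to those with an available protein sequence. Binding is reported as a within-array Z-score averaged across arrays of one protein sequence and across linkers.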
# [2] = target: Gal(b1-4)GlcNAc(b1-3)Gal(b1-4)[Fuc(a1-3)]GlcNAc(b1-3)Gal(b1-4)[Fuc(a1-3)]GlcNAc
# How it was run: as §1
# [3] = target: Gal(b1-4)GlcNAc(b1-3)GalNAc
# How it was run: as §1
# [4] = target: Gal(b1-4)GlcNAc(b1-3)[Gal(b1-4)GlcNAc(b1-6)]Gal(b1-4)GlcNAc
# How it was run: as §1
# [5] = target: Gal(b1-4)GlcNAc(b1-3)[GlcNAc(b1-6)]Gal(b1-4)GlcNAc
# How it was run: as §1
# [6] = target: Gal(b1-4)GlcNAc(b1-6)Gal(b1-4)GlcNAc
# How it was run: as §1
# [7] = target: Gal(b1-4)GlcNAc(b1-6)Gal(b1-4)GlcNAc(b1-6)GalNAc
# How it was run: as §1
# [8] = target: Gal(b1-4)GlcNAc(b1-6)GalNAc
# How it was run: as §1
# [9] = target: Gal(b1-4)GlcNAc(b1-6)[Gal(b1-3)]GalNAc
# How it was run: as §1
# [10] = target: Gal3S(b1-3)GalNAc
# How it was run: as §1
# [11] = target: Gal3S(b1-3)GlcNAc
# How it was run: as §1
# [12] = target: Gal3S(b1-3)[Fuc(a1-4)]GlcNAc
# How it was run: as §1
# [13] = target: Gal3S(b1-4)Glc
# How it was run: as §1
# [14] = target: Gal3S(b1-4)Glc6S
# How it was run: as §1
# [15] = target: Gal3S(b1-4)GlcNAc
# How it was run: as §1
# [16] = target: Gal3S(b1-4)GlcNAc6S
# How it was run: as §1
# [17] = target: Gal3S(b1-4)[Fuc(a1-3)]Glc
# How it was run: as §1
# [18] = target: Gal3S4S(b1-4)GlcNAc
# How it was run: as §1
# [19] = target: Gal3S6S(b1-4)GlcNAc
# How it was run: as §1
# [20] = target: Gal3S6S(b1-4)GlcNAc6S
# How it was run: as §1
# [21] = target: Gal4S(b1-4)GlcNAc
# How it was run: as §1
# [22] = target: Gal4S6S(b1-4)GlcNAc
# How it was run: as §1
# [23] = target: Gal6S(b1-4)Glc
# How it was run: as §1
# [24] = target: Gal6S(b1-4)Glc6S
# How it was run: as §1
# [25] = target: Gal6S(b1-4)GlcNAc
# How it was run: as §1
# [26] = target: Gal6S(b1-4)GlcNAc6S
# How it was run: as §1
# [27] = target: GalNAc(a1-3)Gal
# How it was run: as §1
# [28] = target: GalNAc(a1-3)GalNAc
# How it was run: as §1
# [29] = target: GalNAc(b1-3)Gal
# How it was run: as §1
# [30] = target: GalNAc(b1-3)Gal(a1-4)Gal(b1-4)GlcNAc
# How it was run: as §1
# [31] = target: GalNAc(b1-3)GalNAc
# How it was run: as §1
# [32] = target: GalNAc(b1-4)GlcNAc
# How it was run: as §1
# [33] = target: Glc(a1-4)Glc
# How it was run: as §1
# [34] = target: Glc(a1-6)Glc(a1-6)Glc
# How it was run: as §1
# [35] = target: Glc(b1-4)Glc
# How it was run: as §1
# [36] = target: Glc(b1-6)Glc
# How it was run: as §1
# [37] = target: GlcA(b1-3)Gal
# How it was run: as §1
binder,measurement,setting,value
B1,glycan array binding signal (z-score),[1],-0.267
same,glycan array binding signal (z-score),[2],-0.362
same,glycan array binding signal (z-score),[3],-0.252
same,glycan array binding signal (z-score),[4],-0.247
same,glycan array binding signal (z-score),[5],-0.089
same,glycan array binding signal (z-score),[6],0.196
same,glycan array binding signal (z-score),[7],-0.292
same,glycan array binding signal (z-score),[8],-0.3
same,glycan array binding signal (z-score),[9],-0.196
same,glycan array binding signal (z-score),[10],-0.208
same,glycan array binding signal (z-score),[11],-0.308
same,glycan array binding signal (z-score),[12],-0.255
same,glycan array binding signal (z-score),[13],-0.149
same,glycan array binding signal (z-score),[14],-0.223
same,glycan array binding signal (z-score),[15],-0.227
same,glycan array binding signal (z-score),[16],-0.108
same,glycan array binding signal (z-score),[17],-0.201
same,glycan array binding signal (z-score),[18],-0.146
same,glycan array binding signal (z-score),[19],-0.228
same,glycan array binding signal (z-score),[20],-0.287
same,glycan array binding signal (z-score),[21],-0.229
same,glycan array binding signal (z-score),[22],-0.218
same,glycan array binding signal (z-score),[23],-0.147
same,glycan array binding signal (z-score),[24],-0.132
same,glycan array binding signal (z-score),[25],-0.264
same,glycan array binding signal (z-score),[26],-0.291
same,glycan array binding signal (z-score),[27],-0.009
same,glycan array binding signal (z-score),[28],-0.071
same,glycan array binding signal (z-score),[29],-0.315
same,glycan array binding signal (z-score),[30],-0.301
same,glycan array binding signal (z-score),[31],-0.2
same,glycan array binding signal (z-score),[32],-0.214
same,glycan array binding signal (z-score),[33],-0.118
same,glycan array binding signal (z-score),[34],-0.251
same,glycan array binding signal (z-score),[35],-0.065
same,glycan array binding signal (z-score),[36],-0.336
same,glycan array binding signal (z-score),[37],-0.201
